Test results published in PubChem BioAssay (Tox21).
“And” between values parts separate entries of the source, which are not always exact repeats. Equal values may be shown once. The shares of active, inactive and inconclusive entries below differ from those in the screen. No potency is given beside an inconclusive call; the fits are too rough. The source made the active and inactive calls. Calls come from the whole dose curve; as a rule, active = well fitted cell-killing curve with a large enough effect in the repeat runs; inconclusive = weak or mixed curves, or effect the other way; inactive = flat fitted curve, though single readings scatter.

Assay: qHTS RealTime-Glo MT Cell Viability Assay in HEK293 cells - 40 hour (AID 1224874); note: nearly all actives have a fitted effect of over 50% in size
Settings: RealTime-Glo luminescence; max response: hits give low values
Method in brief: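 600 cells/well were plated with the nonlytic NanoLuc/prosubstrate reagent, pre-incubated 5 h, then given 23 nL of compound in DMSO. Incubation at 37 C for 40 h, with luminescence from viable-cell-reduced substrate read repeatedly from 0 h.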
% is set by controls: 0 for no effect and ±100 for the full control effect; potency is the fitted concentration of half-maximal effect; tags give direction and shape of the fitted curve.

| Compound | max response | Potency |
| --- | --- | --- |
| CO[Si](CCCn1c(=O)n(CCC[Si](OC)(OC)OC)c(=O)n(CCC[Si](OC)(OC)OC)c1=O)(OC)OC | inactive: 1.02% | – |
| N#CCC(=O)O | inactive: -0.419% and inactive: 10.1% | – |
| C[N+](C)(C)CC(O)CC(=O)[O-] (stereo not drawn) | inactive: -3.45% | – |
| CC1=NS(=O)(=O)c2cc(Cl)ccc2N1 | inactive: 2.07% | – |
| FC(F)(F)c1ccc(Cl)c(Cl)c1 | inactive: 1.14% and inactive: 2.54% | – |
| OCC(CBr)(CBr)CBr | – | inconclusive [cytotoxic, partial curve, poor fit] |
| CC(=O)Oc1cccc(C)c1 | inactive: 2.59% | – |
| Cc1c(N)cccc1[N+](=O)[O-] | inactive: -13.1% | – |
| CN1CCN(C2=Nc3ccccc3Sc3ccc(Cl)cc32)CC1 | inactive: -9.09% | – |
| CC/C=C(\C)C=O | inactive: 4.52% | – |
| CSc1cnccn1 | – | inconclusive [cytotoxic, partial curve, poor fit] |
| CCN(CC)C(C)CN1c2ccccc2Sc2ccccc21 (stereo not drawn) | – | inconclusive [cytotoxic, single point] |
| CCN(Cc1ccccc1)c1ccccc1 | – | active: 21.6 µM |
| CCCCc1ccc2nc(NC(=O)OC)[nH]c2c1 | – | inconclusive [cytotoxic, full curve] |
| CN(C)CCC(c1ccccc1)c1ccccn1 (stereo not drawn) | inactive: 7.85% and inactive: 1.55% | – |
| CCOC(=O)CC(CC(=O)OCC)(OC(C)=O)C(=O)OCC | inactive: -6.27% | – |
| CCN1CCCC1=O | inactive: 0.414% and inactive: 1.37% | – |
| Cc1nc(-c2ccccn2)ncc1C(=O)Nn1cc(C)c2cc(F)ccc21 | – | active: 1.38 µM |
| O=C1c2ccccc2C(=O)C1c1ccc2cc(S(=O)(=O)O)cc(S(=O)(=O)O)c2n1 | inactive: -25.3% | – |

| Compound | max response | Potency |
| --- | --- | --- |
| CC(=O)/C=C/C1C(C)=CCC(C)C1(C)C (stereo not drawn) | inactive: 1.21% | – |
| O=C(NS(=O)(=O)/C=C/c1cccs1)c1ccc(F)cc1Br | – | inconclusive [cytotoxic, partial curve, poor fit] |
| NC(Cc1ccc(Cl)cc1)C(=O)O (stereo not drawn) | inactive: 10.5% | – |
| CC(=O)C=O | inactive: 3.76% | – |
| CSc1nnc(C(C)(C)C)c(=O)[nH]1 | inactive: 1.65% | – |
| CCCOc1ccc(S(=O)(=O)N2CCN(CC)CC2)cc1-c1nc2c(CC)n(Cc3ccccn3)nc2c(=O)[nH]1 | – | inconclusive [cytotoxic, partial curve, poor fit] |
| Cc1nc2sccn2c(=O)c1CCN1CCC(=C(c2ccc(F)cc2)c2ccc(F)cc2)CC1 | – | active: 4.25 µM |
| CC(C)CCCCOC(=O)c1ccccc1C(=O)OCCCCC(C)C | inactive: -1.41% | – |
| CCCS(=O)c1ccc2nc(NC(=O)OC)[nH]c2c1 (stereo not drawn) | – | inconclusive [cytotoxic, partial curve] |
| CN(C)CCOCCN(C)CCO | inactive: -7.32% | – |
| O=C1c2cccc3c2[C@H](CCC3)CN1[C@@H]1CN2CCC1CC2 | – | active: 6.01 µM |
| OC(CCN1CCCCC1)(c1ccccc1)C1CCCCC1 (stereo not drawn) | inactive: -21.9% | – |
| O=C(O)c1nc(Cl)c(Cl)c(Cl)c1Cl | – | inconclusive [rising, partial curve] |
| c1ccc2c(CC3=NCCN3)cccc2c1 | inactive: -13.3% | – |
| O=Cc1ccc(Cl)cc1 | inactive: -1.8% | – |
| Cc1cccc(NC(=S)N(C)C)c1 | – | inconclusive [rising, partial curve, poor fit] |
| Cc1c(Cl)c(=O)oc2cc(O)ccc12 | – | active: 43.6 µM |
| CCN1CN(CC)CN(CC)C1 | inactive: 4.59% | – |
| Cc1ccc(N)cc1[N+](=O)[O-] | inactive: -16.8% | – |
